Laboratory results from PubChem BioAssay AID1347120 (National Center for Advancing Translational Sciences (NCATS), 2019).
Screen size: about 390,000 compounds; about 930 (0.24%) were called active. Inconclusive means that the source gave no clear call. Such entries were picked first, then a sample of the others. Calls come from the whole dose curve; as a rule, active = well fitted activation curve with a large enough effect; inconclusive = small, poorly fitted or top-dose-only effect; inactive = no such curve, though single readings can be large or run the other way. Potencies beside an inconclusive call are fits to weak or partial responses and may not hold up.

Test: qHTS for Suppressors of FUS Proteinopathy: Primary screen using FUS-linked yeast assay; note: nearly all actives have a fitted effect of over 55% in size
Settings: S. cerevisiae FUS-expressing, OD600, 24 h; Potency: growth rescue; series mostly up to 76.6 µM
How it was run: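 Read-out: OD at 600 nm after 24hr at 30C, reporting rescue of FUS-induced yeast toxicity. Cells at OD 0.005 in galactose (2%) minimal medium; compounds tested in a dilution series; CP55940 titration from 92uM final as control.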
Potency is the fitted concentration of half-maximal effect; tags give direction and shape of the fitted curve.

| SMILES | Potency |
| --- | --- |
| Cc1cccn2c(=O)cc(CSc3nnc(NC(=O)c4ccc(F)cc4)s3)nc12 | inactive |
| CCC(Sc1nnc(-c2ccc(OC)c(OC)c2)c(-c2ccc(OC)c(OC)c2)n1)C(=O)NC1CCCC1 (stereo unspecified) | inconclusive: 31.6 µM [activator, single point] |
| COc1cccc(NC(=O)Cn2nc(C)c3c(C)n(-c4ccccc4)nc3c2=O)c1 | inactive |
| CC(C)(C)c1cc(S(=O)(=O)CCc2ccccn2)cc(C(C)(C)C)c1F | inconclusive: 25.1 µM [activator, single point] |
| CCn1c(SCC(=O)Nc2ccc3c(c2)c2ccccc2n3CC)nnc1-c1ccco1 | active: 25.1 µM |
| O=C(CSc1nc2ccccc2[nH]1)NCCc1ccc(Cl)cc1 | inconclusive: 3.16 µM [activator, partial curve, poor fit] |
| COc1ccc([C@H]2OC(=O)C[C@H]2C(=O)N2CCN(c3ccccc3C(F)(F)F)CC2)cc1OC | inactive |
| CCOc1ccc(N(CC)C(=O)CCc2nc(-c3ccccc3F)no2)cc1 | inconclusive: 44.7 µM [activator, single point] |
| COc1ccc(C(=O)O/N=C(\N)c2ccccc2Cl)cc1OC | inactive |
| COc1cc(Cl)c(NC(=O)CN(C)S(=O)(=O)c2ccc3c(c2)CCCC(=O)N3)c(OC)c1 | inactive |
| CC(=O)N1c2c(cc(Br)cc2S(=O)(=O)NCc2ccccc2Cl)CC1C (stereo unspecified) | inactive |
| Cc1cc(C)c(Cn2c(=O)n(CCCC(=O)NCc3ccco3)c(=O)c3sccc32)c(C)c1 | inconclusive: 50.1 µM [activator, single point] |
| O=C(NC1CCCCC1)C(c1ccccc1F)n1c(=O)c(-c2ccco2)nc2ccccc21 (stereo unspecified) | inconclusive: 7.94 µM [activator, partial curve] |
| CCOc1ccc(NC(=O)Cn2cc(C(=O)c3ccccc3)c(=O)c3cc4c(cc32)OCO4)cc1 | inactive |
| COc1ccc(OC)c(CCNC(=O)C(C)n2c(C)c3cnn(-c4ccccc4)c(=O)c3c2C)c1 (stereo unspecified) | inactive |
| CN(C)C1(CNC(=O)COc2ccc(C(C)(C)C)cc2)CCCCC1 | inactive |
| COc1ccc(NS(=O)(=O)c2cc(NC(=O)CC(C)(C)C)ccc2N2CCCC2)cc1 | inconclusive: 28.2 µM [activator, single point] |
| COc1cc(C(C(=O)NC(C)(C)C)N(C(=O)CNC(=O)c2cccs2)c2ccc(C(C)C)cc2)cc(OC)c1OC (stereo unspecified) | inconclusive: 35.5 µM [activator, single point] |
| CCOc1ccc(NC(=O)Cn2c(=O)c(CNc3ccccc3)cc3cc4c(cc32)OCCO4)cc1 | inconclusive: 14.1 µM [activator, partial curve, poor fit] |
| Cc1ccccc1NC(=O)Cn1cnc2c(oc3nc4c(cc32)CCCC4)c1=O | inconclusive: 25.1 µM [activator, partial curve, poor fit] |
| CCS(=O)(=O)c1cccc(C(=O)N2CCN(c3nc4c(C)ccc(Cl)c4s3)CC2)c1 | inconclusive: 17.8 µM [activator, partial curve, poor fit] |

| SMILES | Potency |
| --- | --- |
| CN(C(=O)Cn1ncc2c1-c1ccccc1OC2)c1ccc(Br)cc1 | inactive |
| C[C@]12C(=O)N(c3ccccc3)C(=O)N1[C@@H]1c3ccccc3OC[C@@H]1[C@H]2c1ccccc1 | inconclusive: 35.5 µM [activator, single point] |
| CCN(c1ccccc1)S(=O)(=O)c1ccc(C(=O)N(CCCN(C)C)c2nc3c(C)cccc3s2)cc1 | inconclusive: 28.2 µM [activator, partial curve, poor fit] |
| COc1ccc(CC(=O)Nc2ccc3nc(SC)sc3c2)cc1OC | inconclusive: 22.4 µM [activator, partial curve] |
| Cc1ccc(F)cc1C(=O)N1CCCCC1c1cc(C(=O)Nc2ccc(F)c(Cl)c2)no1 (stereo unspecified) | inconclusive: 39.8 µM [activator, single point] |
| Cc1nn(Cc2ccc(Cl)c(Cl)c2)c(C)c1NC(=O)c1cc(-c2ccco2)on1 | inconclusive: 8.91 µM [activator, partial curve] |
| O=C(N/N=C/c1c[nH]c2ccccc12)c1[nH]c2ccc(Br)cc2c1-c1ccccc1 | inconclusive: 50.1 µM [activator, single point] |
| CC(=O)Nc1ccc(S(=O)(=O)NCCC(=O)Nc2ccc(C)cn2)cc1 | inactive |
| Cc1[nH]n2c(=O)cc(-c3ccc([N+](=O)[O-])cc3)nc2c1-c1ccccc1 | inconclusive: 14.1 µM [activator, partial curve, poor fit] |
| OCc1ccc2c(c1)c(-c1ccc3c(c1)OCCO3)c(-c1ccccc1)n2-c1ccccc1 | inactive |
| COc1ccc(CCNc2nc3ccccc3c3nc(-c4cccc(C)c4)nn23)cc1OC | inactive |
| CC(C)CN1CC(=O)N2C(c3ccccc3)c3[nH]c4ccccc4c3C[C@H]2C1=O (stereo partly specified) | inconclusive: 50.1 µM [activator, single point] |
| COc1cccc(CNc2ccc(N3CCC(C)CC3)cc2)c1OC | inconclusive: 39.8 µM [activator, partial curve, poor fit] |
| O=C(c1cccc(NS(=O)(=O)c2ccc(F)cc2)c1)N1CCN(c2ccccc2)CC1 | inconclusive: 50.1 µM [activator, single point] |
| O=C(NCc1ccccc1)C1C(c2ccc3c(c2)OCO3)=Nc2ccccc2N1C(=O)c1ccccc1 (stereo unspecified) | inactive |
| CC(=O)c1cccc(-c2cnc3c(NC=O)cc(-c4ccccc4Oc4ccccc4)cn23)c1 | inconclusive: 25.1 µM [activator, partial curve] |
| CCC(=O)N1c2ccc(S(=O)(=O)N3CCN(c4cc(C)ccc4C)CC3)cc2CC1C (stereo unspecified) | inactive |
| C/C(=N\Nc1ccc([N+](=O)[O-])cc1)c1ccc(O)cc1 | inconclusive: 50.1 µM [activator, single point] |
| COc1ccc(C(=O)O)cc1NCc1ccc(C)s1 | inactive |
| C=Cc1ccc(Cn2c(C(=O)O)c(CNCc3ccccc3)c3ccc(OC)cc32)cc1 | inconclusive: 31.6 µM [activator, partial curve] |
